Experimental data as given in paper PMC4007767.
Results are given in words; binding and its absence hold for the method and conditions named. Binding seen in cells or lysates may run through a third protein. Some binding calls cover weakened binding; strength is not graded here. For some of these results: Sequences can lack the tags named with a protein. Each block holds one binder with its values, some of them ahead of it.

Protein sequences, listed by entry. Tags and fused reporters are not part of them.
UniProt A5D8V6: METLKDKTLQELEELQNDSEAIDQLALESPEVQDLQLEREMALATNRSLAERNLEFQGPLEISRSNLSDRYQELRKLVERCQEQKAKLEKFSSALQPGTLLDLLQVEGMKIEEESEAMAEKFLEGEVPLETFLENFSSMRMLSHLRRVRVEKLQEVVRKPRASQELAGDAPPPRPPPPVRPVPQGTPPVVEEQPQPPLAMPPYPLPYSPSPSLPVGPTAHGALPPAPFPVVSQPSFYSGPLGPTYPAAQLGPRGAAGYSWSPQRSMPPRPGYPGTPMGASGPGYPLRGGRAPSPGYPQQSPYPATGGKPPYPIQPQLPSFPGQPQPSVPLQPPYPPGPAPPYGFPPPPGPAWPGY
UniProt Q99816: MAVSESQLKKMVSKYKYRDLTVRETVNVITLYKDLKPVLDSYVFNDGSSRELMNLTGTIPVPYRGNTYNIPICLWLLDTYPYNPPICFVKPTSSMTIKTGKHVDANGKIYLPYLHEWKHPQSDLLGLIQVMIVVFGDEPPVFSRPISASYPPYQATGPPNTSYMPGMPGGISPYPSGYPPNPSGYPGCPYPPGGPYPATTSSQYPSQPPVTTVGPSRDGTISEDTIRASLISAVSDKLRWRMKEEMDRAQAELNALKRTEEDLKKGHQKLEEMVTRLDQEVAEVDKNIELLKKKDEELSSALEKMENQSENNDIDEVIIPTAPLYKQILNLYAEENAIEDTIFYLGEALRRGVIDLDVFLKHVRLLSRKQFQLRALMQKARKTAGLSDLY

Tests used:
[1] = molecular target: Flag–VPS37C (in vitro translated) (human) (UniProt A5D8V6); test: co-IP; 35S-labelled ESCRT-I subunits co-translated in rabbit reticulocyte lysate, diluted tenfold in 10 mM Tris-HCl pH 7.4, 150 mM NaCl, 1 mM EDTA, 0.1% Triton X-100; IP of HA–TSG101 with anti-HA agarose overnight; SDS-PAGE and phosphoimaging
[2] = molecular target: T1, Flag–VPS37A (in vitro translated, full length) (human), Q8NEZ2; test: co-IP; as a7, but no HA–TSG101 in the translation mix (Fig. 5A lane 13); the antibody used is not given; details: remark: other sources report otherwise
T1 chain: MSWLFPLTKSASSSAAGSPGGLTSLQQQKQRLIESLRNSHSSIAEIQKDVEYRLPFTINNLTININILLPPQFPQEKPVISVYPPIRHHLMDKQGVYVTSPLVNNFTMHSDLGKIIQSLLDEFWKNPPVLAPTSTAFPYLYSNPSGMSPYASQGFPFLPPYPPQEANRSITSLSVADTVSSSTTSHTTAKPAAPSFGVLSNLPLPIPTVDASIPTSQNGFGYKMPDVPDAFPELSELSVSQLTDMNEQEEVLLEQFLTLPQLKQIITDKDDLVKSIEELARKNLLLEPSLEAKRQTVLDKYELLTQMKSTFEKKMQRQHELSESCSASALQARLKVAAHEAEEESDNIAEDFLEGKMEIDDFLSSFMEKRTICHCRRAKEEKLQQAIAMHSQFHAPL

[3] = molecular target: Flag–VPS37A (in vitro translated, full length) (human) (UniProt Q8NEZ2); test: co-IP; 35S-labelled ESCRT-I subunits co-translated in rabbit reticulocyte lysate, diluted tenfold in 10 mM Tris-HCl pH 7.4, 150 mM NaCl, 1 mM EDTA, 0.1% Triton X-100; IP of HA–TSG101 with anti-HA agarose overnight; SDS-PAGE and phosphoimaging
[4] = molecular target: HA–TSG101 (in vitro translated) (human) (UniProt Q99816); test: as above

binding [1]: binds
B1: UBAP1(UMA) (amino acids 1–63, in vitro translated) (domain or fragment, UniProt Q9NZ09 1-63)
chain: MASKKLGADFHGTFSYLDDVPFKTGDKFKTPAKVGLPIGFSLPDCLQVVREVQYDFSLEKKTI
modifications: 35S-methionine label

binding [2]: no binding
B2: VPS28–Myc (in vitro translated), Q9UK41 1-221 (protein)
chain: MFHGIPATPGIGAPGNKPELYEEVKLYKNAREREKYDNMAELFAVVKTMQALEKAYIKDCVSPSEYTAACSRLLVQYKAAFRQVQGSEISSIDEFCRKFRLDCPLAMERIKEDRPITIKDDKGNLNRCIADVVSLFITVMDKLRLEIRAMDEIQPDLRELMETMHRMSHLPPDFEGRQTVSQWLQTLSGMSASDELDDSQVRQMLFDLESAYNAFNRFLHA
modifications: here or on the partner: 35S-methionine label; 35S-methionine label

binding [3]: no binding | binding [4]: no binding
B3: UBAP1 predicted helix region alone (in vitro translated) (domain or fragment, UniProt Q9NZ09 44-95)
chain: DCLQVVREVQYDFSLEKKTIEWAEEIKKIEEAEREAECKIAEAEAKVNSKSG
modifications: 35S-methionine label
